In PubChem BioAssay AID504333 (National Center for Advancing Translational Sciences (NCATS), 2011):
Out of some 360,000 compounds screened, about 16,000 (4.4%) were called active. Inconclusive means that the source gave no clear call. Such entries were picked first, then a sample of the others. Calls come from the whole dose curve; as a rule, active = well fitted inhibition curve with a large enough effect; inconclusive = small, poorly fitted or top-dose-only effect; inactive = no such curve, though single readings can be large or run the other way. Potencies beside an inconclusive call are fits to weak or partial responses and may not hold up.

target: Bromodomain adjacent to zinc finger domain protein 2B (Homo sapiens) (UniProt Q9UIF8); test: qHTS Assay for Inhibitors of BAZ2B; details: AlphaScreen BAZ2B-H3K14Ac peptide displacement; activity change, negative = inhibition: at 114 µM (top of the series); note: nearly all actives have a fitted effect of over 60% in size
In short: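 AlphaScreen displacement of biotin-H3(5-23)K14Ac peptide (50 nM final) from BAZ2B (50 nM final) in PBS pH 7.4, 0.01% Tween-20; complex preformed 30 min RT, then compounds (top 110 uM) 30 min RT, beads 20 min dark.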
% is set by controls: 0 for no effect and ±100 for the full control effect; potency is the fitted concentration of half-maximal effect; tags give direction and shape of the fitted curve.

UniProt Q9UIF8, sequence (Q9UIF8 whole entry, looked up, the tested form may be a part): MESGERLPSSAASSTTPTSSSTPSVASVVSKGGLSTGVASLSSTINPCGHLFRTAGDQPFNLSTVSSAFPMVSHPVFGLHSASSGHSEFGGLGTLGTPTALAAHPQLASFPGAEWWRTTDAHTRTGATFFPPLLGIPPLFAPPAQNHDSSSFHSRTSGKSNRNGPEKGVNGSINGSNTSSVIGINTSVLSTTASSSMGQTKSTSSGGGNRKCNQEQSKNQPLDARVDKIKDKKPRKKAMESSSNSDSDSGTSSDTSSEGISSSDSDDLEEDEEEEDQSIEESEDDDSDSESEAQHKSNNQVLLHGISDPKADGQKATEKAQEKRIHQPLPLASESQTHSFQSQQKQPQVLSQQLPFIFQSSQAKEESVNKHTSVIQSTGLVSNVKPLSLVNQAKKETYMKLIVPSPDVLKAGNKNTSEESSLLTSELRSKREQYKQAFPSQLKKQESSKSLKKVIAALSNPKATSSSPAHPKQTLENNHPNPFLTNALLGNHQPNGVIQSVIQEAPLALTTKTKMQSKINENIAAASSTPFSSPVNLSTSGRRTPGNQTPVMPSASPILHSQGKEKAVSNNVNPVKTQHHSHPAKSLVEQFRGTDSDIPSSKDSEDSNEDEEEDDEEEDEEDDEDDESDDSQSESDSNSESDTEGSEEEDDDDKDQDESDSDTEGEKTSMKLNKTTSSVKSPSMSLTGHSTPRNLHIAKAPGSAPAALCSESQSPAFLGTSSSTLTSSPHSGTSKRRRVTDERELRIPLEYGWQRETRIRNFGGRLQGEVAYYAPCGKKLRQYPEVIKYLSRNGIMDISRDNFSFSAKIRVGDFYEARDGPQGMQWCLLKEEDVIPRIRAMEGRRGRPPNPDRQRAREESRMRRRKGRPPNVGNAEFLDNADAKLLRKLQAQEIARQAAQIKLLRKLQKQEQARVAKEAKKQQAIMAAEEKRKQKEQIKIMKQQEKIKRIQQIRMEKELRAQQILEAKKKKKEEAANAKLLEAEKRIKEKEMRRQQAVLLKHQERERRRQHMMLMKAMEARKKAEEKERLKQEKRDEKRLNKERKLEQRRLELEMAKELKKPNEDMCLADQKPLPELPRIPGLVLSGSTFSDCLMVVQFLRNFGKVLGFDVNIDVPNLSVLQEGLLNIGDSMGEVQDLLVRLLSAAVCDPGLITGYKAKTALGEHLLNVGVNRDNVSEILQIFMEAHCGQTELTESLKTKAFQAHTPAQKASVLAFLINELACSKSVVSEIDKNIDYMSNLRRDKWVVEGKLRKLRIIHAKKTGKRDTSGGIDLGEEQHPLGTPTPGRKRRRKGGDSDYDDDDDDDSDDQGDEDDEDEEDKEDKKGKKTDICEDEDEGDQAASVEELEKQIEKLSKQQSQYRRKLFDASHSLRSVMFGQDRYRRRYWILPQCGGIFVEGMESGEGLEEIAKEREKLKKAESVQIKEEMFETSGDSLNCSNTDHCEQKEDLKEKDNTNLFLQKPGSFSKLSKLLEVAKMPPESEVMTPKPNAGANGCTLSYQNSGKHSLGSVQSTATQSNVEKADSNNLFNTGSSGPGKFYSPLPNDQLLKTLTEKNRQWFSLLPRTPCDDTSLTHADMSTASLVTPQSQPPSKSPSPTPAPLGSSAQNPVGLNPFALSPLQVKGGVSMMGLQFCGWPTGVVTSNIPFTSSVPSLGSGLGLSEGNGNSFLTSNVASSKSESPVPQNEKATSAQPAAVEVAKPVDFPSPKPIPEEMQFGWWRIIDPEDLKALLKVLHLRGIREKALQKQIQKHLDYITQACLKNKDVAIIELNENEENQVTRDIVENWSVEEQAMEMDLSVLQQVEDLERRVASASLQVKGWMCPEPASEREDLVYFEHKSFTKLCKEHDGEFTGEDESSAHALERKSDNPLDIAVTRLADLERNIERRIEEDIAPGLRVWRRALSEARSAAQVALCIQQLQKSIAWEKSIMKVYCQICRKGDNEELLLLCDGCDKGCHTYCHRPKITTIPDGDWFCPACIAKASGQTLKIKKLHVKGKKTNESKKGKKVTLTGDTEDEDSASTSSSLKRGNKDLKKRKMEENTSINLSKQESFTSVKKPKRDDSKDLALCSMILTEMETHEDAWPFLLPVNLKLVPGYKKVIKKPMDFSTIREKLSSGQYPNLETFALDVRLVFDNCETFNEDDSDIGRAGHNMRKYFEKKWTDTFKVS

Row | Compound | Potency | activity change, negative = inhibition
1 | CCN1C(=O)C(=Cc2ccc(C)s2)C(=O)N(CC)C1=S | active: 44.7 µM | 
2 | CCCCn1c(O)c(C(C)=Nc2ccc(OCC)cc2)c(=O)[nH]c1=O |  | inactive: -24.9%
3 | CCOC(=O)c1c(C)n(Cc2ccccc2)c2ccc(O)cc12 | inconclusive: 50.1 µM [inhibitor, partial curve] | 
4 | CCCC[C@H](CN(N=O)[C@@H](Cc1ccccc1)CN(C)N=O)N(CCc1ccccc1)N=O | inconclusive: 70.8 µM [inhibitor, single point] | 
5 | COc1cc(OC)c(OC)cc1CNCCc1cccc(F)c1 | active: 56.2 µM | 
6 | COc1ccc(CN2CCN(c3ccccc3)CC2)c(C)c1C | active: 50.1 µM | 
7 | Cc1cccc(-n2c(O)c(/C=N/NC(=O)c3ccncc3)c(=O)[nH]c2=O)c1 | inconclusive: 79.4 µM [inhibitor, single point] | 
8 | O=C(CCN1CCN(c2ccccc2)CC1)c1ccc(Br)cc1 | inconclusive: 50.1 µM [inhibitor, partial curve] | 
9 | C=CCn1c(CSc2ccccc2[N+](=O)[O-])n[nH]c1=S | active: 39.8 µM | 
10 | COCCCn1c(-c2ccc(OC)cc2)cc(C(=O)NC2CCCCCCC2)c1C | inconclusive: 39.8 µM [inhibitor, partial curve] | 
11 | COc1cc(OC)c(OC)cc1CN1CCN(C(=O)Cc2ccccc2)CC1 | inconclusive: 89.1 µM [inhibitor, single point] | 
12 | CCCCn1c(O)c(C(CC)=Nc2cccc(C(=O)O)c2)c(=O)[nH]c1=O | inconclusive: 89.1 µM [inhibitor, single point] | 
13 | COc1cccc(C(C(=O)NCc2ccco2)N(Cc2ccco2)C(=O)Cn2nnc3ccccc32)c1 (configuration not stated) |  | inactive: 44.4%
14 | CN(C)c1ccc(C(=O)c2ccc(N(C)C)cc2)cc1 | inconclusive: 89.1 µM [inhibitor, single point] | 
15 | CCOc1c(Cl)cc(CNCCc2c[nH]c3ccccc23)cc1OC | inconclusive: 7.08 µM [inhibitor, full curve] | 
16 | COc1ccc2[nH]c(C)c(CCNCc3cccnc3)c2c1 | active: 20 µM | 
17 | CCS(=O)(=O)C1=NN2C(=N)/C(=C\c3ccc(OC(=O)c4ccco4)cc3)C(=O)N=C2S1 | inconclusive: 70.8 µM [inhibitor, single point] | 
18 | Cc1ccc(N2CCN(CCc3ccccc3)CC2)cc1 | active: 50.1 µM | 
19 | COc1ccc(CN2CC3CC(C2)c2cccc(=O)n2C3)cc1OC (configuration not stated) | inconclusive: 89.1 µM [inhibitor, single point] | 
20 | COc1ccc(CNCCc2cccc(F)c2)c2ccccc12 | inconclusive: 79.4 µM [inhibitor, single point] | 
21 | O=C(OCC1O[C@@H](OC(=O)c2cc(O)c(O)c(O)c2)[C@@H](OC(=O)c2cc(O)c(O)c(O)c2)[C@@H](OC(=O)c2cc(O)c(O)c(O)c2)[C@@H]1OC(=O)c1cc(O)c(O)c(O)c1)c1cc(O)c(O)c(O)c1 (some centres not stated) | active: 0.708 µM | 
22 | CCOP1(=S)Oc2cc3c(cc2C(C(=O)OC)(C(F)(F)F)O1)OCO3 (configuration not stated) |  | inactive: -32.5%
23 | Cn1cc(C(=O)NC2CC2)c2ccccc21 |  | inactive: 1.98%
24 | Clc1ccc2c(c1)C(c1ccccc1Cl)=NCc1nnc(N3CCN(CCOc4ccccc4)CC3)n1-2 | active: 44.7 µM | 

Row | Compound | Potency | activity change, negative = inhibition
25 | CC1(C)CC(=O)C(C2(O)C(=O)NC(=O)NC2=O)=C(O)C1 |  | inactive: -31%
26 | c1ccc2c(CCNC3CCCCC3)c[nH]c2c1 | inconclusive: 79.4 µM [inhibitor, single point] | 
27 | CC(C)NC(=O)C(C)N1CCN(S(=O)(=O)c2ccc3ccccc3c2)CC1 (configuration not stated) | active: 56.2 µM | 
28 | OCCN(Cc1ccccc1)Cc1cccc(F)c1 | active: 44.7 µM | 
29 | O=c1cc(-c2ccc(O)c(O)c2)oc2cc(O)cc(O)c12 | active: 79.4 µM | 
30 | c1ccc(CN2CCN(Cc3ccc4c(c3)OCCO4)CC2)cc1 | inconclusive: 89.1 µM [inhibitor, single point] | 
31 | CCN(CC)c1ccc(CN2CC=C(c3ccc(F)cc3)CC2)cc1 | active: 79.4 µM | 
32 | CC1CCN(S(=O)(=O)c2ccc(NN=C(C#N)C#N)cc2)CC1 | active: 44.7 µM | 
33 | C=Cc1ccc(Cn2c(C)c(CNCCc3cc(OC)ccc3OC)c(C(=O)O)c2C)cc1 |  | inactive: -35.5%
34 | Cc1ccc(Cn2nnnc2CN2CCC(n3nnc4ccccc43)CC2)cc1 | inconclusive: 89.1 µM [inhibitor, single point] | 
35 | CCOc1cc(-c2nc3c(C)cccn3c2NCC2CCCO2)ccc1O (configuration not stated) | inconclusive: 89.1 µM [inhibitor, single point] | 
36 | CN(C)c1ccc(NC(=O)CN2C3CCCC2CC(NC(=O)c2ccccc2)C3)cc1 (configuration not stated) | active: 70.8 µM | 
37 | CC[N+](C)(CC)CCCCOc1ccc2c(c1)C(=O)c1cc(OCCCC[N+](C)(CC)CC)ccc1-2 | inconclusive: 89.1 µM [inhibitor, single point] | 
38 | O=c1[nH]c(=S)[nH]c(O)c1/C=C1/C=c2ccccc2=N1 | inconclusive: 89.1 µM [inhibitor, single point] | 
39 | O=c1c2ccccc2nc(/C=C/c2ccccc2)n1-c1ccccc1O | inconclusive: 79.4 µM [inhibitor, single point] | 
40 | O=C(O)c1[nH]c(=O)[nH]c(=O)c1F | active: 50.1 µM | 
41 | O=C1NC(=O)C(=Cc2coc3ccc(O)cc3c2=O)C(=O)N1 | inconclusive: 89.1 µM [inhibitor, single point] | 
42 | COC(=O)C(O)(c1ccc(NC(=O)c2ccccc2)cc1)C(F)(F)F (configuration not stated) |  | inactive: -1.35%
43 | OC1(CN2CCOCC2)C2CC3CC(C2)CC1C3 (configuration not stated) | inconclusive: 89.1 µM [inhibitor, single point] | 
44 | CN1CCN(C2=Nc3cc(Cl)ccc3Nc3ccccc32)CC1 | inconclusive: 79.4 µM [inhibitor, single point] | 
45 | COc1cccc(CN2CCCC(C(=O)c3ccccc3SC)C2)c1O (configuration not stated) | inconclusive: 79.4 µM [inhibitor, single point] | 
46 | Cn1c(=O)cc(OCCCC(=O)N2CCC3(CC2)OCCO3)c2ccccc21 | inconclusive: 89.1 µM [inhibitor, single point] | 
47 | N#C/C(=C\c1ccc(N2CCCCC2)c([N+](=O)[O-])c1)c1nn(-c2ccccc2)c(N)c1C#N | inconclusive: 28.2 µM [inhibitor, partial curve] | 
